Here are results for 55 compounds from PubChem BioAssay AID1347073 (National Center for Advancing Translational Sciences (NCATS), 2019).

Structures are written as SMILES. Out of some 45,000 compounds screened, about 200 (0.44%) were called active. Another 7% or so got no clear call; they are omitted. Calls follow the shape of the dose curve; as a rule, active = well fitted activation curve with a large enough effect; inconclusive = small, poorly fitted or top-dose-only effect; inactive = no such curve, though single readings can be large or run the other way. The list shows a part of the results.

The assay in a line: qHTS of TDP-43 Inhibitors: NCGC Sytravon Library Screen. Also: 0% is about no effect; nearly all actives have a fitted effect of over 55% in size. To be noted: yeast TDP-43 toxicity rescue, BacTiter-Glo growth, 24 h; series mostly up to 46.1 µM; growth rescue (activation): at the top concentration. The gist of the method:
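TDP-43-expressing yeast, pregrown in raffinose, seeded at OD600 0.02 in galactose medium with compound for 24 hr at 30 deg C. Growth read by BacTiter-Glo luminescence, so rescue of toxicity appears as activation.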
With `O=C(O)c1cccc(S(=O)(=O)NCC2COc3ccccc3O2)c1` (stereo not given), the “growth rescue (activation)” value was inactive: -9.49%.
The same measure for `COC(=O)c1c(NC(=O)c2ccccc2OC)sc(C(=O)N2CCOCC2)c1C`: inactive: 2.09%; for `COc1c(C)cc(Br)cc1C(=O)Nc1ccc(Cc2ccncc2)cc1`: inactive: 25.9%.
The figure for `O=C(Nc1cc(Cl)ccc1O)C1CCCO1` (stereo not given) is inactive: 23.2%; for `O=C(Nc1ccccc1C(=O)O)c1ccc(CN2C(=O)c3ccccc3C2=O)cc1` it is inactive: 9.44%; for `O=C(CSc1ncccc1C(=O)O)c1ccccc1F` it is inactive: -3.36%.
As to `CCOc1cc(C(N)=O)cc(Cl)c1OCC`, the “growth rescue (activation)” value was inactive: 8%.
As for `CCc1nc2c(OCc3ccc(OC(F)F)cc3)cccn2c1N(C)C(=O)c1ccco1`, the “growth rescue (activation)” value is inactive: 15.3%.
With `CSc1nc2nc3c(cc2c(=O)n1-c1ccccc1)COC(C)(C)C3`, the “growth rescue (activation)” value is inactive: 4.92%.
The same measure for `CC(C)O/C(=N/S(=O)(=O)c1ccc(Cl)cc1)c1ccccc1`: inactive: 13.3%.
As to `Cc1cc(C)n(-c2ccc(C(=O)O)cc2[N+](=O)[O-])n1`, the “growth rescue (activation)” value is inactive: 2.55%.
The figure for `COc1cccc(OC)c1C(=O)OCC(=O)NCC(C)C` is inactive: -0.0418%; for `CC1=C(C)/C(=N\OS(=O)(=O)c2ccc(C)cc2)C=CC1=O` it is inactive: -94.9%.
The same measure for `O=C(C1CCCC1)N1CCN(S(=O)(=O)c2ccc(Cl)cc2)CC1`: inactive: -0.249%.
For `Cc1noc(NS(=O)(=O)c2ccc(NC(=O)CC(C)C)cc2)c1C`, the “growth rescue (activation)” value is inactive: -13.3%.
Regarding `COCCNC(=O)C1(C)CCN(C(=O)c2cccnc2Oc2ccccc2)C1` (stereo not given), the “growth rescue (activation)” value is inactive: 0.59%.
Take `O=C(NCc1cccs1)c1ccccc1F`: the “growth rescue (activation)” value was inactive: 30%.
The same measure for `C=CCn1c(C2CC2)n[nH]c1=S`: inactive: -6.16%; for `COCCSc1ccccc1C(=O)NCCc1ccccc1`: inactive: 17.6%; for `Cc1ccc(Nc2n[nH]c(C)c2[N+](=O)[O-])cc1`: inactive: 8.32%.
The figure for `COCCCNC(=O)CCc1nnc(Cc2ccc(-c3ccccc3)cc2)o1` is inactive: 6.12%; for `COc1ccc(C(=O)NC(=S)N2CCCCC2)cc1[N+](=O)[O-]` it is inactive: 20.1%.
The figure for `CC(C)(C)NC(=O)COc1ccc(CNCCc2ccccc2)cc1` is inactive: -2.63%.
Regarding `Cc1sc2ncn(/N=C/c3ccco3)c(=O)c2c1C`, the “growth rescue (activation)” value was inactive: 17%.
The figure for `Cc1c(Cl)cnc(NC(=O)CSc2nnc(C)n2Cc2ccccc2)c1Cl` is inactive: 24.7%; for `Cc1ccccc1C(=O)Nc1cccc(C(=O)N/N=C/c2ccccn2)c1` it is inactive: 11.4%; for `Cc1ccccc1Nc1nc(N)nc(CSc2nnc3ccccn23)n1` it is inactive: 25%.
The same measure for `O=C(CN1N=C(c2ccc(Cl)cc2)CCC1=O)NCc1cccnc1`: inactive: 6.39%; for `CC(=O)Nc1ccc(S(=O)(=O)Nc2nc3ccccc3nc2Nc2cccc(S(N)(=O)=O)c2)cc1`: inactive: 9.15%; for `NC(=O)c1ccc[n+](CC(=O)Nc2ccccc2C(=O)O)c1`: inactive: -6.69%.
In the case of `CS(=O)(=O)N(CC(=O)Nc1ccccc1-c1ccccc1)c1ccccc1`, the “growth rescue (activation)” value was inactive: -1.2%.
Turning to `O=C(N/N=C/c1ccccc1OCc1ccccc1Cl)c1cccnc1`, the “growth rescue (activation)” value is inactive: 15.4%.
As to `Cc1ccc(NC(=O)CNCc2ccccn2)cc1S(=O)(=O)N(C)C`, the “growth rescue (activation)” value is inactive: 3.18%.
For the compound `CCCc1cc(=O)[nH]c(SCC(=O)Nc2ccc(S(=O)(=O)N3CCCC3)cc2)n1`, the “growth rescue (activation)” value was inactive: 5.11%.
The same measure for `O=C1OCC/C1=C\c1ccccc1`: inactive: 8.57%; for `COCCNC(=O)/C(C#N)=C/c1c(N2CCN(c3ccccc3)CC2)nc2c(C)cccn2c1=O`: inactive: -7.85%.
Consider `Cc1cccc(NC(=O)CSc2nc(C)c(Cc3ccccc3)c(=O)[nH]2)c1`, for which the “growth rescue (activation)” value was inactive: -16.1%.
Consider `COc1ccc(-c2nc(CNS(=O)(=O)c3ccc(F)cc3)cs2)cc1`, for which the “growth rescue (activation)” value was inactive: 9.75%.
Regarding `CCCCCCCc1nc2sc3c(c2c(=O)n1N)CC(C)(C)OC3`, the “growth rescue (activation)” value was inactive: -0.436%.
The same measure for `O=c1nc2c(-c3cccc(Br)c3)n[nH]n2c2ccccc12`: inactive: -18.9%; for `Cc1nnc(SCC(=O)Nc2cccc(S(=O)(=O)NC3=NCCCCC3)c2)n1Cc1ccccc1`: inactive: -6.9%.
The same measure for `Cn1c(=O)[nH]c(=O)c2c1nc1n2CC(O)CN1c1ccccc1` (stereo not given): inactive: 8.93%; for `Cc1onc(-c2ccccc2)c1C(=O)N1CCC(C)(C(=O)O)C1` (stereo not given): inactive: -1.92%; for `COc1ccc(NC(=O)Cn2cc(C(=O)C3CC3)c3ccccc32)cc1`: inactive: 7.31%.
The same measure for `COc1ccc(C(C[N+](=O)[O-])c2c(C)[nH]n(-c3ccccc3)c2=O)cc1` (stereo not given): inactive: 19.5%.
On to `COc1cccc(NC(=O)CN(C)CC(=O)Nc2cccc(C(F)(F)F)c2)c1`, for which the “growth rescue (activation)” value was inactive: 16.9%.
The figure for `COc1ccc(/C=C(\NC(=O)c2ccco2)C(=O)N2CCOCC2)cc1` is inactive: -26.5%; for `COc1ccc(CN(CC(=O)NC2CCCCC2)C(=O)CCC(=O)Nc2nccs2)cc1` it is inactive: 0.645%; for `COC(=O)Oc1cncc(C(=O)O)c1` it is inactive: 9.57%.
The same measure for `CCOC(=O)Cc1csc(NC(=O)c2cc(C)cc(C)c2)n1`: inactive: -2.53%; for `Cc1ccc(NC(=S)c2ccc(N(C)C)cc2)cc1`: inactive: 13.1%; for `O=C1CSC(c2cn(-c3ccccc3)nc2-c2cc3ccccc3o2)N1Cc1ccccc1` (stereo not given): inactive: 12.9%.
The figure for `COc1ccc(Nc2c([N+](=O)[O-])ccc3c2=NC2(CCCCC2)N=3)cc1` is inactive: 21.9%; for `CCC1C(c2ccccc2)N(C)C(c2ccccc2)CC1(O)c1ccccc1` (stereo not given) it is inactive: 0.909%.
For `N#C/C(=C/c1ccc(CNC(=O)C(=O)Nc2cc(Cl)cc(Cl)c2)o1)C(=O)NCc1cccnc1`, the “growth rescue (activation)” value was inactive: -6.48%.
